Measurements published in the RNAGym collection of RNA variant scans (doi:10.1101/gad.245936.114).
Variants at the floor of the assay are shown more often than the library holds them.

B1: tRNA (parent)
chain: CUCUCGGUAGCCAAGUUGGUUUAAGGCGCAAGACUUUAAUUUAUCACUACGAAAUCUUGAGAUCGGGCGUUCGACUCGCCCCCGGGAGAUUUUUUCCUCGAGCAA

Variants of: B1
Assay: nonsense suppression (GFP-seq) (ratio to wild type); higher = more function; SUP4oc tRNA, yeast GFP reporter sort-seq
In short: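 Raffinose/galactose medium with 80 mg/L adenine was used to grow yeast carrying genome-integrated tRNA variants (~3% random-mutation library), RFP, and a galactose-driven GFP ochre reporter. Cells went into GFP/RFP bins, which were Illumina-sequenced, and variants with ≥100 reads and ≥30 cells were scored. Nonsense suppression (GFPSEQ) is the per-bin median GFP/RFP weighted by estimated cell share and expressed relative to the unmutated parent tRNA.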

Variant | nonsense suppression
CUCUCGGUAGCCAAGAUUGUUUAAGGCGCAAGACUUUAAUUUAUCACUACGAAAUCUUGUGAUCGGGCGUUCGACUCGCCCCCGGGAGAUUUUUUCCUCGAGCAA [U16A G18U A60U] | ≤ 0.026
CUCUCGGUAGCCAAGAUGAUUUAAGGCGCAAGACUUUAAUUUAUCACUACGAAAUCUUGCGAUCGGGCGUUCGACUCGCCCCCGGGAGAUUUUUUCCUCGAGCAA [U16A G19A A60C] | ≤ 0.026
CUCUCGGUAGCCAAGAUGUUUUAAGGCGCAAGACUUUAAUUUAUCACUACGAAAUCUUGAGAUCGGGCGUUCGACUCGCCCCCGGGAGAUUUUUUCCUCGAGCAA [U16A G19U] | ≤ 0.026
CUCUCGGUAGCCAAGAUGGUUUAAGGCACAAGACUUUAAUUUAUCACUACGAAAUCUUGAGAUCGGGCGUUCGACUCGCCCCCGGGAGAUUUUUUCCUCGAGCAA [U16A G28A] | 1.11
CUCUCGGUAGCCAAGAUGGUUUAAGGCGCAAGACUUUAAUUUAUCACUACGAAAUCUUCAGAUCGGGCGUUCGACUCGCCCCCGGGAGAUUUUUUCCUCGAGCAA [U16A G59C] | ≤ 0.026
CUCUCGGUAGCCAAGAUGGUUUAAGGCGCAAGACUUUAAUUUAUCACUACGAAAUCUUCAGAUCGGGCGUUCGACUCGCGCCCGGGAGAUUUUUUCCUCGAGCAA [U16A G59C C80G] | ≤ 0.026
CUCUCGGUAGCCAAGAUGGUUUAAGGCGCAAGACUUUAAUUUAUCACUACGAAAUCUUUAGAUCGGGCGUUGGACUCGCCCCCGGGAGAUUUUUUCCUCGAGCAA [U16A G59U C72G] | ≤ 0.026
CUCUCGGUAGCCAAGAUGGUUUAAGGCGCAAGACUUUAAUUUAUCACUACGAAAUCUUGAGAUCCGGCGUUCGACUCGCCCCCGGGAGAUUUUUUCCUCGAGCAA [U16A G65C] | ≤ 0.026
CUCUCGGUAGCCAAGAUGGUUUAAGGCGCAAGACUUUAAUUUAUCACUACGAAAUCUUGAGAUCCGGCGUUCCACUCGCCCCCGGGAGAUUUUUUCCUCGAGCAA [U16A G65C G73C] | ≤ 0.026
CUCUCGGUAGCCAAGAUGGUUUAAGGCGCAAGACUUUAAUUUAUCACUACGAAAUCUUGAGAUCGGGCGUUCAACUCGCCCCCGGGAGAUUUUUUCCUCGAGCAA [U16A G73A] | 0.63
CUCUCGGUAGCCAAGAUGGUUUAAGGCGCAAGACUUUAAUUUAUCACUACGAAAUCUUGAGAUCGGGCGUUCCACUCGCCCCCGGGAGAUUUUUUCCUCGAGCAA [U16A G73C] | ≤ 0.026
CUCUCGGUAGCCAAGAUGGUUUAAGGCGCAAGACUUUAAUUUAUCACUACGAAAUCUUGAGAUCGGGCGUUCGACUCUCCCCCGGGAGAUUUUUUCCUCGAGCAA [U16A G78U] | 0.188
CUCUCGGUAGCCAAGAUGGUUUAAGGCGCAAGACUUUAAUUUAUCACUACGAAAUCUUGAGAUCGGGCGUUCGACUCGCCCCCGAGAGAUUUUUUCCUCGAGCAA [U16A G85A] | 1.03
CUCUCGGUAGCCAAGAAGGUUUAAGGCGCAAGACUUUAAUUUAUCACUACGAAAUCUUGAGAUCGGGCGUUGGACUCGCCCCCGGGAGAUUUUUUCCUCGAGCAA [U16A U17A C72G] | ≤ 0.026
CUCUCGGUAGCCAAGAGGGUUUAAGGCGCAAGACUUUAAUUUAUCACUACGAAAUCUUGAGAUCGGGCGUUCGACUCGCCCCCGGGAGAUUUUUUCCUCGAGCAA [U16A U17G] | 1.16
CUCUCGGUAGCCAAGAUGGAUAAAGGCGCAAGACUUUAAUUUAUCACUACGAAAUCUUCAGAUCGGGCGUUCGACUCGCCCCCGGGAGAUUUUUUCCUCGAGCAA [U16A U20A U22A G59C] | ≤ 0.026
CUCUCGGUAGCCAAGAUGGCUUAAGGCGCAAGACUUUAAUUUAUCACUACGAAAUCUUGAGAUCGGGCGUUCGACUCGCCCCCGGGAGAUUUUUUCCUCGAGCAA [U16A U20C] | 0.193
CUCUCGGUAGCCAAGAUGGCUUAAGGCGCACGACUUUAAUUUAUCACUACGAAAUUUUGAGAUCGGGCGUUCGACUCGCCCCCGGGAGAUUUUUUCCUCGAGCAA [U16A U20C A31C C56U] | ≤ 0.026
CUCUCGGUAGCCAAGAUGGGUUAAGGCGCAAGACUUUAAUUUAUCACUACGAAAUCUUGAGAUCGGGCGUUCGACUCGCCCCCGGGAGAUUUUUUCCUCGAGCAA [U16A U20G] | 1.11
CUCUCGGUAGCCAAGAUGGUGUAAGGCGCAAGACUUUAAUUUAUCACUACGAAAUCAUGCUAUUGGGCGUUCGACUCGCCCCCGGGAGAUUUUUUCCUCGAGCAA [U16A U21G U57A A60C G61U C64U] | ≤ 0.026
CUCUCGGUAGCCAAGAUGGUUCAAGGCGCAAGACUUUAAUUUAUCACUACGAAAUCUUGAGGUCGGGCGUUCGACUCGCCCCCGGGAGAUUUUUUCCUCGAGCAA [U16A U22C A62G] | ≤ 0.026
CUCUCGGUAGCCAAGAUGGUUGAAUGCGCAAGACUUUAAUUUAUCACUACGAAAUCUUGAGAUCGGCCGUUCGACUCGCCCCCGGGAGAUUUUUUCCUCGAGCAA [U16A U22G G25U G67C] | ≤ 0.026
CUCUCGGUAGCCAAGAUGGUUUAAGGCGCAAGACAUUAAUUUAUCACUACGAAAUCUUGAGAUAGGGCGUACGACUCGCCCCCGGGAGAUUUUUUCCUCGAGCAA [U16A U35A C64A U71A] | ≤ 0.026
CUCUCGGUAGCCAAGAUGGUUUAAGGCGCAAGACGUUAAUUUAUCACUACGAAAUCUUGAGAUCGGGCGUUCGACUCGCCCCCGGGAGAUUUUUUCCUCGAGCAA [U16A U35G] | ≤ 0.026
CUCUCGGUAGCCAAGAUGGUUUAAGGCGCAAGACUUUAAUUUAUCACUACGAAAGCGUGUGAUCGGGCGUUCGACUCGCCCCCGGGAGAUUUUUUCCUCGAGCAA [U16A U55G U57G A60U] | ≤ 0.026
CUCUCGGUAGCCAAGAUGGUUUAAGGCGCAAGACUUUAAUUUAUCACUACGAAAUCCUGAGAUCGGGCGUUCGACCCGCCCCCGGGAGAUUUUUUCCUCGAGCAA [U16A U57C U76C] | ≤ 0.026
CUCUCGGUAGCCAAGAUGGUUUAAGGCGCAAGACUUUAAUUUAUCACUACGAAAUCUGUUGAUCGGGCGUUCGACUCGCCCCCGGGAGAUUUUUUCCUCGAGCAA [U16A U58G G59U A60U] | ≤ 0.026
